About 4,200 (1.3%) of roughly 330,000 compounds were called active. This list was built around the results that the source calls inconclusive (neither active nor inactive); the mix of calls is not that of the screen. Calls come from the whole dose curve; as a rule, active = well fitted activation curve with a large enough effect; inconclusive = small, poorly fitted or top-dose-only effect; inactive = no such curve, though single readings can be large or run the other way. Potencies of inconclusive entries are doubtful fits and often do not repeat.
Test: qHTS screen for small molecules that induce genotoxicity in human embryonic kidney (HEK293T) cells expressing luciferase-tagged ELG1; note: nearly all actives have a fitted effect of over 60% in size
Conditions: HEK293T ELG1-luciferase reporter, luminescence, 16 h; series mostly up to 46 µM
In short: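 Quantitative HTS format in 1536-well plates. HEK293T ELG1-luciferase reporter cells receive test compound and are incubated 16 hr at 37 °C, 5% CO2; ONE-Glo added, 30 min room temperature, then luminescence read.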
For `CCOc1ccc(N(CC(=O)N2CCN(c3ccc(F)cc3)CC2)S(=O)(=O)c2c(C)noc2C)cc1`, the Potency was “inactive”.
With `CCc1cccc(NC(=O)NC(=O)Cn2nnc(C(=O)OC)c2C(=O)OC)c1` the Potency was “inactive”.
With `O=C(NC(=S)Nc1ccc(S(=O)(=O)Nc2ncccn2)cc1)c1ccc(Br)cc1` the Potency was “inactive”.
In the case of `COc1cc(C(=O)NCC(c2ccccc2)N(C)C)ccc1OCc1c(C)noc1C` (configuration not stated), the Potency is reported as “inactive”.
For `S=C(Nc1ccc(Nc2ccccc2)cc1)Nc1ccccn1`, the Potency was inconclusive: 32.6 µM [activator, partial curve, poor fit].
With `CCc1noc(C)c1C(=O)Nc1nc2ccc(S(C)(=O)=O)cc2s1` the Potency was “inactive”.
With `O=C(COc1ccccc1Cl)Nc1ccc2c(c1)C(=O)NC2=O` the Potency was “inactive”.
With `O=S(=O)(Cc1noc(-c2ccccc2Cl)n1)c1ccccn1` the Potency was inconclusive: 16.4 µM [activator, partial curve].
With `O=C(COC(=O)c1n[nH]c2ccccc12)Nc1ccccc1F` the Potency was inconclusive: 20.6 µM [activator, partial curve].
For `Cc1ccc2[nH]c(C)c(CCNC(=O)C3CCCCC3C(=O)OCC(F)(F)F)c2c1` (configuration not stated), the Potency was “inactive”.
With `Cc1nc2cc(-c3ccccc3)nn2c(N)c1-c1ccccc1` the Potency was active: 1.83 µM.
For `Cc1ccc(NC(=O)C(=O)C2C(=O)Nc3ccccc32)cc1` (configuration not stated), the Potency was inconclusive: 13 µM [activator, partial curve, poor fit].
For `CCN(CC)S(=O)(=O)c1ccc(N=NC2=C(O)CC(C)(C)CC2=O)cc1`, the Potency was “inactive”.
With `O=C(Oc1ccc(/C=N/Nc2ccccc2)cc1)c1ccccc1` the Potency was inconclusive: 20.6 µM [activator, single point].
With `COc1ccc2oc(C(=O)Nc3nc(C)cs3)c(C)c2c1` the Potency was inconclusive: 2.59 µM [activator, partial curve].
With `CCCCc1ccc(NC(=S)N2CCC(O)CC2)cc1` the Potency was “inactive”.
For `Cc1cc2c([nH]c3ccccc32)c2c1OC(C)(C)C=C2`, the Potency was inconclusive: 20.6 µM [activator, partial curve].
With `COc1cc(/C=N/n2c(C)n[nH]c2=S)ccc1OCc1ccc(F)cc1` the Potency was inconclusive: 20.6 µM [activator, partial curve, poor fit].
With `COc1cc(Cl)ccc1OCc1cc(C(=O)NC(C)Cc2cnccn2)no1` (configuration not stated) the Potency was inconclusive: 3.26 µM [activator, partial curve].
In the case of `O=c1c2ccccc2nc2c3ccccc3cnn12`, the Potency is reported as inconclusive: 20.6 µM [activator, partial curve].
In the case of `O=C(CCn1c(=S)[nH]c2cc3c(cc2c1=O)OCO3)NCc1ccccc1Cl`, the Potency is reported as inconclusive: 32.6 µM [activator, partial curve, poor fit].
In the case of `CC(C)OC(=O)C(C)Oc1ccc(C(=O)NCCc2ccccc2)cc1` (configuration not stated), the Potency is reported as inconclusive: 32.6 µM [activator, single point].
With `CCOC(=O)c1cn2nc(N3CCCC3)ccc2n1` the Potency was inconclusive: 2.59 µM [activator, partial curve, poor fit].
In the case of `O=C(Nc1ccc2c(c1)OCCO2)c1ccc(Br)cc1`, the Potency is reported as inconclusive: 0.517 µM [activator, full curve, poor fit].
For `O=C(NCCc1ccccc1)c1cc(-c2ccncc2)nc2ccc(S(=O)(=O)N3CCOCC3)cc12`, the Potency was inconclusive: 2.91 µM [activator, partial curve, poor fit].
With `O=C(c1ccccc1)c1cc(F)c(N2CCOCC2)cc1Cl` the Potency was “inactive”.
With `COCCNC(=S)NNc1cccc(C(=O)O)c1` the Potency was inconclusive: 18.3 µM [activator, partial curve, poor fit].
In the case of `O=[N+]([O-])c1ccccc1-c1cc(-c2ccccc2O)n[nH]1`, the Potency is reported as inconclusive: 11.6 µM [activator, partial curve].
With `Cc1ccccc1NC(=O)/C=C/c1cccs1` the Potency was inconclusive: 9.2 µM [activator, partial curve, poor fit].
For `Cc1ccc(SCCC(=O)N2CCC(C(N)=O)CC2)cc1`, the Potency was inconclusive: 11.6 µM [activator, partial curve, poor fit].
For `O=S(=O)(O)c1cccc(N=Nc2c(O)ccc3ccccc23)c1`, the Potency was “inactive”.
In the case of `c1ccc(-c2noc(C3CCCCC3)n2)nc1`, the Potency is reported as active: 6.51 µM.
For `COc1ccccc1CN1CC(C(=O)N2CCCCO2)CCC1=O` (configuration not stated), the Potency was inconclusive: 23.1 µM [activator, partial curve, poor fit].
With `COCCNC(=O)C(=O)Nc1ccc(Cl)cc1C` the Potency was inconclusive: 16.4 µM [activator, partial curve, poor fit].
In the case of `CC(=O)Nc1ccc(N2C(=O)CSC2c2cccc([N+](=O)[O-])c2)cc1` (configuration not stated), the Potency is reported as “inactive”.
With `Cc1ccc(C(=O)Oc2ccc(-c3nccc(-c4ccccn4)n3)cc2)cc1` the Potency was active: 10.3 µM.
In the case of `COCC(C)NC(=O)/C(=C/c1ccccc1)c1ccccc1` (configuration not stated), the Potency is reported as “inactive”.
In the case of `Clc1ccc(SCc2cc(-c3ccccc3)on2)cc1`, the Potency is reported as inconclusive: 29.1 µM [activator, single point].
With `O=C(N/N=C/c1ccccc1O)/C(=C/c1ccccc1)CCO` the Potency was inconclusive: 20.6 µM [activator, single point].
For `COc1ccc(/C=N/NC(=O)c2cccc(NC(=O)c3ccccc3Cl)c2)cc1`, the Potency was “inactive”.
With `COc1ccc(C(=O)Cc2ccc3c(c2)OCO3)c(O)c1` the Potency was inconclusive: 9.2 µM [activator, partial curve].
With `O=C(Nc1ccc(NC(=O)c2cccs2)cc1)c1ccccc1` the Potency was inconclusive: 23.1 µM [activator, partial curve, poor fit].
For `Nc1ccc(C#Cc2ccccc2)cc1`, the Potency was inconclusive: 23.1 µM [activator, partial curve, poor fit].
In the case of `O=C(Nc1ccc(Br)cc1)c1ccc2c(c1)OCO2`, the Potency is reported as active: 8.2 µM.
For `CCCNC(=O)Cn1c(-c2ccc(F)cc2)cc(C(=O)OCC)c1C`, the Potency was inconclusive: 0.164 µM [activator, full curve, poor fit].
With `S=C(c1cn(CCOc2ccccc2)c2ccccc12)N1CCCC1` the Potency was inconclusive: 20.6 µM [activator, partial curve].
For `CC(C)CNC(=S)Nc1ccc(Oc2ccccc2)cc1`, the Potency was “inactive”.
With `CCCOc1ccc(/C=N/Nc2ccccc2[N+](=O)[O-])c(OCCC)c1` the Potency was inconclusive: 16.4 µM [activator, partial curve, poor fit].
In the case of `COc1ccc(S(=O)(=O)N2CCN(C(=O)CCNC(=O)c3ccccc3Cl)CC2)cc1`, the Potency is reported as “inactive”.
With `Cc1ccc(NC(=O)COC(=O)c2cccc(C)c2[N+](=O)[O-])cc1S(=O)(=O)N1CCCCC1` the Potency was “inactive”.
For `CC(C)(C)C(=O)/C=C/c1ccc(Oc2ccccc2)cc1`, the Potency was inconclusive: 16.4 µM [activator, single point].
For `COc1ccc(S(=O)(=O)NC2CCc3ccccc32)cc1OC` (configuration not stated), the Potency was “inactive”.
For `COc1cccc(N=Nc2ccc(O)c3ncccc23)c1`, the Potency was inconclusive: 6.51 µM [activator, single point].
For `C(=C\c1ccco1)/c1nc2ccccc2[nH]1`, the Potency was inconclusive: 2.59 µM [activator, partial curve, poor fit].
In the case of `Cc1nc(C)c(-c2csc(Nc3ccccn3)n2)s1`, the Potency is reported as inconclusive: 1.3 µM [activator, full curve].
For `CCOC(=O)Nc1nc(-c2ccccc2)c(C(=O)c2ccccc2)s1`, the Potency was inconclusive: 3.66 µM [activator, full curve, poor fit].
With `COc1ccc(C(C)=O)cc1COC(=O)CSC(C)C(=O)Nc1cc(C)on1` (configuration not stated) the Potency was “inactive”.
For `O=c1oc(-c2ccccc2Cl)nc2ccsc12`, the Potency was inconclusive: 23.1 µM [activator, partial curve, poor fit].
In the case of `O=C(CSc1ncc(-c2ccc(F)cc2)[nH]1)N1CCCCC1`, the Potency is reported as inconclusive: 14.6 µM [activator, partial curve].
For `CN(CC(=O)Nc1ccc(Cl)c(C(F)(F)F)c1)C(=O)Cc1n[nH]c(=O)c2ccccc12`, the Potency was inconclusive: 29.1 µM [activator, single point].
For `CNC(=O)c1ccc(-c2cc(C(F)(F)F)nn2C)s1`, the Potency was inconclusive: 18.3 µM [activator, partial curve].
For `CCCCN(C(=O)C1CCCC1)c1c(N)n(CC(C)C)c(=O)[nH]c1=O`, the Potency was “inactive”.
In the case of `c1ccc2c(c1)CCN(c1nc3cc4c(cc3s1)OCCO4)C2`, the Potency is reported as inconclusive: 0.058 µM [activator, full curve].
With `CCCOc1ccc(CSc2nc3ccccc3[nH]2)cc1` the Potency was inconclusive: 23.1 µM [activator, partial curve, poor fit].
In the case of `O=C(Nc1ccc2[nH]c(=O)[nH]c2c1)c1ccc(Br)o1`, the Potency is reported as inconclusive: 20.6 µM [activator, single point].
With `Cc1ccc(NC(=O)c2nc[nH]c2C(=O)N2CCc3ccccc3C2)cc1` the Potency was “inactive”.
In the case of `CCN1CCN(c2ccc(S(=O)(=O)N3CCOCC3)cc2NC(=O)/C=C/c2ccc(C)cc2)CC1`, the Potency is reported as inconclusive: 1.03 µM [activator, full curve, poor fit].
In the case of `Nc1c(C(=O)Nc2ccccc2F)sc2nc(-c3cccnc3)ccc12`, the Potency is reported as inconclusive: 16.4 µM [activator, partial curve, poor fit].
For `c1ccc2sc(N3CCOCC3)nc2c1`, the Potency was inconclusive: 25.9 µM [activator, partial curve, poor fit].
With `Fc1ccc(-n2nnc(-c3ccccc3)n2)cc1` the Potency was “inactive”.
For `CC(C)c1ccc(/C=C/C(=O)N2CCc3ccccc3C2)cc1`, the Potency was inconclusive: 20.6 µM [activator, partial curve, poor fit].
For `c1ccc(-c2ccc(OCCOCCn3cncn3)cc2)cc1`, the Potency was inconclusive: 16.4 µM [activator, single point].

Reference: PubChem BioAssay AID504466 (National Center for Advancing Translational Sciences (NCATS), 2011)
Potency is the fitted concentration of half-maximal effect; tags give direction and shape of the fitted curve.
